In PubChem BioAssay AID2100 (National Center for Advancing Translational Sciences (NCATS), 2009):
Hit rate of the full screen: of about 300,000 compounds, about 1,200 (0.4%) were called active. Inconclusive results, whose numbers are uncertain, are shown with a selection of clear calls. The call rests on the fitted dose curve; in most records, active means well fitted inhibition curve with a large enough effect; inconclusive means small, poorly fitted or top-dose-only effect, or another doubt; inactive means no such curve, though single readings can be large or run the other way. Potencies beside an inconclusive call are fits to weak or partial responses and may not hold up.

Target: Lysosomal alpha-glucosidase (Homo sapiens) (UniProt P10253)
Experiment: qHTS Assay for Inhibitors and Activators of Human alpha-Glucosidase Cleavage of Glycogen;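 on activity change, negative = inhibition: 0% = full enzyme reaction and -100% = no-enzyme basal signal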
Conditions: recombinant GAA, glycogen substrate, Amplex Red glucose oxidase fluorescence; activity change, negative = inhibition: at 76.4 µM (top of the series) unless noted
Method in brief: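 Recombinant human enzyme (4 nM); glycogen substrate; 37 C, 40 min, pH 5.0. Readout: coupled glucose oxidase/Amplex Red fluorescence.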
Potency means the concentration at half of the fitted maximal effect.

SMILES | Potency | activity change, negative = inhibition
COc1cc(C2NC(=O)NC(C)=C2C(=O)OCC2CCCCC2)cc(Cl)c1O (stereo not drawn) | inconclusive: 28.2 µM [inhibitor, single point] | –
Cc1cc(=O)[nH]c(N/N=C/c2ccc(N(C)C)cc2)n1 | inconclusive: 15.7 µM [inhibitor, single point] | –
COCCCNC(=O)CCC(=O)NNc1nc2ccccc2c2nc(-c3ccccc3)nn12 | inconclusive: 25.1 µM [inhibitor, partial curve, poor fit] | –
O=C1c2ccccc2-c2c1cccc2C(=O)N1CCN(C(=O)c2ccco2)CC1 | – | inactive: 0.848%
O=C(Nc1cccc(-c2nc3cccnc3s2)c1)c1cccc(Br)c1 | – | inactive: 13.5% [at 76.3 µM]
Cc1ccc2nc(-c3cccnc3)c(Nc3ccc(C(C)C)cc3)n2c1 | – | inactive: -8.56% [at 76.3 µM]
CC1CC(C)CN(C(=O)c2ccncc2)C1 (stereo not drawn) | inconclusive: 6.31 µM [inhibitor, single point] | –
CCOC(=O)N1CCC(=NNc2ccnc3cc(Cl)ccc23)CC1 | inconclusive: 15.8 µM [inhibitor, partial curve] | –
CCOC(=O)/C(=C/C=C1\Sc2cc(OCC)c(OCC)cc2N1CC)C(C)=O | – | inactive: -0.281%
CCCOC(=O)C(=O)NNc1ccccc1 | inconclusive: 6.31 µM [inhibitor, full curve] | –
O=C(NCC1CC1)Nc1cccs1 | inconclusive: 14.1 µM [inhibitor, partial curve] | –
CCCCn1c(N)c(N2CCOCC2)c(=O)n(CC(=O)NC(C)c2ccccc2)c1=O (stereo not drawn) | – | inactive: -5.74%
Cc1cc(C)c(NC(=O)CCCn2c(C)c3cnn(-c4ccccc4)c(=O)c3c2C)c(C)c1 | – | inactive: 2.89% [at 76.3 µM]
CCN(CC)c1ccc(NC(=O)C2CCCN(S(=O)(=O)c3cccnc3)C2)c(C)c1 (stereo not drawn) | inconclusive: 15.8 µM [activator, partial curve] | –
CCOC(=O)c1c(CSc2ccccc2)n(C)c2cc(Br)c(OCC(O)CNC(CO)(CO)CO)cc12 (stereo not drawn) | – | inactive: 2.48%
Cc1cccc(N2C(=O)/C(=C\c3ccc(C(=O)O)cc3)c3ccccc3C2=O)c1 | inconclusive: 24.9 µM [inhibitor, partial curve] | –
O=C(N/N=C/c1ccc(O)c(O)c1)NC12CC3CC(CC(C3)C1)C2 | active: 10 µM | –
COc1cc(Cl)c(C)cc1NC(=O)c1nn(C)c2c1CSc1ccccc1-2 | – | inactive: -22.8% [at 76.3 µM]
O=C(NN=C1CCCCCCC1)c1ccc2ccccc2n1 | inconclusive: 3.55 µM [inhibitor, full curve] | –
O=C(NCCc1ccc2c(c1)OCCO2)c1ccc([N+](=O)[O-])cc1Cl | inconclusive: 6.31 µM [inhibitor, full curve, poor fit] | –
O=C(Nc1ccc(Cl)cc1C(F)(F)F)C(Sc1nnc(-c2cccs2)o1)c1ccccc1 (stereo not drawn) | inconclusive: 28.2 µM [inhibitor, partial curve] | –
NC(=O)NNC(=S)Nc1cccc2ccccc12 | inconclusive: 7.94 µM [inhibitor, partial curve] | –
COCCCNC(=S)Nc1ccc(N2CCCCC2)cc1 | active: 14.1 µM | –
Cc1ccc(/C=N/NC(=O)c2csc3c2CCCC3)cc1 | inconclusive: 12.6 µM [inhibitor, partial curve, poor fit] | –
COc1ccc(CSCCc2n[nH]c(=S)n2-c2ccccc2)cc1C | inconclusive: 10 µM [inhibitor, partial curve] | –

SMILES | Potency | activity change, negative = inhibition
COc1cc(/C=C/C(=O)OCC(=O)N2CCC(Cc3ccccc3)CC2)ccc1O | inconclusive: 20 µM [inhibitor, partial curve] | –
CN(CCOC(=O)/C=C/c1ccco1)Cc1ccccc1 | inconclusive: 50.1 µM [inhibitor, partial curve] | –
CC(=O)/C=C(\C)Nc1c(C)n(C)n(-c2ccccc2)c1=O | inconclusive: 5.01 µM [inhibitor, full curve] | –
CCc1nnc(N/N=C/c2cc(C)c(C)cc2C)n1N | active: 8.91 µM | –
COc1cc(OC)c(NC(=O)Cn2cnc3c(nc4n3CCCCC4)c2=O)cc1Cl | – | inactive: -9.23% [at 76.3 µM]
CCN(CC)S(=O)(=O)c1cccc(-c2nnc(C(=O)c3ccc(C(F)(F)F)cc3)o2)c1 | – | inactive: 1.12%
COc1ccc(NC(=O)O/N=C/c2ccncc2)cc1 | inconclusive: 12.6 µM [inhibitor, partial curve] | –
CCOc1ccc(-n2cc(-c3ccc(OC)c(OC)c3)[nH]c2=S)cc1 | inconclusive: 39.8 µM [inhibitor, single point] | –
N#C/C=C\Oc1ccc(Cl)cc1N | active: 9.92 µM | –
COc1ccc(/C=C2\C(=N)N3N=C(CC(=O)N4CCCCC4)SC3=NC2=O)cc1 | – | inactive: 2.95% [at 76.3 µM]
O=C(CNc1ccc(Cl)cc1)c1ccc(Br)cc1 | inconclusive: 31.6 µM [activator, partial curve] | –
COc1ccc(OCC(=O)Nc2ccc(N3CCC(C)CC3)cc2)cc1 | inconclusive: 63.1 µM [activator, partial curve, poor fit] | –
CCN1CCOC(=O)C1CC(=O)Nc1cc(Cl)ccc1C (stereo not drawn) | – | inactive: -7.29% [at 76.3 µM]
Cc1[nH]c2ccccc2c1/C=N/Nc1ccccc1[N+](=O)[O-] | active: 6.31 µM | –
Cc1ccnc(NC(c2cccnc2)c2ccc3cccnc3c2O)c1 (stereo not drawn) | inconclusive: 31.6 µM [inhibitor, partial curve] | –
Brc1ccc(/C=N/Nc2nc3ccccc3o2)cc1 | inconclusive: 28 µM [inhibitor, single point] | –
COCCCNC(=S)NNC(=O)c1cccnc1 | inconclusive: 25.1 µM [inhibitor, single point] | –
Cc1c(O)ccc(NS(=O)(=O)c2ccccc2)c1C | inconclusive: 3.55 µM [inhibitor, full curve] | –
CCOC(=O)NC1(Nc2ccc(Cl)cn2)Oc2ccccc2O1 | active: 22.2 µM | –
COc1cc(/C=C2\CC(C(C)(C)C)C/C(=C\c3cc(OC)c(OC)c(OC)c3)C2=O)cc(OC)c1OC (stereo not drawn) | – | inactive: -6.68%
CCN(CC)S(=O)(=O)c1ccc(C(=O)NCCc2ccccn2)cc1 | inconclusive: 17.8 µM [activator, partial curve, poor fit] | –
Cc1[nH][nH]c(=O)c1C(c1ccc(-c2ccc(Cl)c(C(=O)O)c2)o1)c1c(C)[nH][nH]c1=O | inconclusive: 14.1 µM [inhibitor, partial curve] | –
Oc1ccc(-c2nc(=S)[nH][nH]2)cc1 | inconclusive: 39.5 µM [inhibitor, single point] | –
CCOC(=O)CSc1nc2ccc(NC(=O)COc3ccccc3C)cc2s1 | – | inactive: 10.7% [at 76.3 µM]
O=C(Nc1ccc(Cl)cc1)c1cc2c(-c3ccccc3)nn(-c3ccccc3)c2s1 | – | inactive: -3.43% [at 76.3 µM]

SMILES | Potency | activity change, negative = inhibition
Cc1ccc(NC(=S)N/N=C2\CCCCC2C)cc1 (stereo not drawn) | inconclusive: 11.2 µM [inhibitor, partial curve] | –
COc1cc(-c2nc3ccccn3c2/N=C/c2cccc(F)c2)ccc1O | inconclusive: 17.8 µM [inhibitor, single point] | –
CCOC(=O)c1c(CN2CCOCC2)n(-c2ccccc2)c2cc(Br)c(O)cc12 | inconclusive: 31.6 µM [inhibitor, single point] | –
Oc1ccc(/C=N/N2CCCCC2)c(O)c1 | active: 11.2 µM | –
Cc1nn(-c2ccccc2)c(OC(=O)C(C)(C)C)c1Sc1ccccc1 | inconclusive: 25.1 µM [inhibitor, partial curve] | –
CCC1=[N+]([O-])C(C)(/C(C)=N\O)N(O)C1(C)C (stereo not drawn) | inconclusive: 24.9 µM [inhibitor, partial curve] | –
CCO/C=C1/C(=O)N(Cc2ccccc2)C(=O)c2ccccc21 | – | inactive: 4.9%
Cc1ccc2nc(-c3cccnc3)c(NC3CCCC3)n2c1 | inconclusive: 12.6 µM [inhibitor, partial curve] | –
COC(=O)CCC(=O)OC1(C)C(=O)C=C2C=C(C3CC3)N(c3cccc(C#N)c3)C=C2C1=O (stereo not drawn) | – | inactive: -14.7%
Cc1cccc(C)c1Nc1c(-c2ccc(O)cc2)nc2sccn12 | inconclusive: 25.1 µM [inhibitor, single point] | –
Oc1ccccc1Nc1nc(-c2ccccc2O)nc2ccccc12 | – | inactive: 4.27%
COc1ccc(Nc2oc(/C=C/c3ccc(OC)c(OC)c3)nc2C#N)cc1 | inconclusive: 22.4 µM [inhibitor, partial curve, poor fit] | –
COc1cc(C2C(C(C)=O)=C(O)C(=O)N2c2ccc(Br)cn2)ccc1O (stereo not drawn) | inconclusive: 12.6 µM [inhibitor, partial curve] | –
COc1ccc(CCNc2oc(-c3ccccc3OC)nc2C#N)cc1 | inconclusive: 5.01 µM [inhibitor, full curve] | –
CCOc1ccc(NC(=O)CC2C(=O)N(c3ccc(OC)cc3)C(=S)N2Cc2ccccn2)cc1 (stereo not drawn) | inconclusive: 35.5 µM [inhibitor, partial curve] | –
NC(=S)N=Nc1ccc(NN=C(N)N)cc1 | active: 39.8 µM | –
COc1ccc(/C(N)=N/O)c(OC)c1 | inconclusive: 7.08 µM [inhibitor, partial curve] | –
CC1=C(CC/C(C)=N/NC(N)=S)C(C)(C)CCC1 | inconclusive: 35.5 µM [inhibitor, single point] | –
Cc1ccc(-n2c(SCC(N)=O)nc3c(c2=O)C2(CCCC2)Cc2ccccc2-3)cc1 | – | inactive: 4.86%
O=C(COc1ccccc1)NNc1nc2c(F)cccc2s1 | inconclusive: 12.6 µM [inhibitor, partial curve] | –
Oc1ccc(Br)cc1/C=N/Nc1ccccn1 | – | inactive: -5.32%
Cc1ccc(NC(=S)NNC(=S)Nc2cccc(C(F)(F)F)c2)cc1 | inconclusive: 28.2 µM [inhibitor, partial curve] | –
CC(C)OCCCNc1nc2c([nH]1)c(=O)n(C)c(=O)n2C | inconclusive: 22.2 µM [inhibitor, single point] | –
